In PubChem BioAssay AID192 (DTP/NCI, 2004):
Inconclusive results and toxic doses are left out. The source holds more than one record for some entries. This is not the full list of results. There may be further records. Values that stand side by side differ for a reason that is not stated; they may come from other doses, times, organisms or constructs than stated.

Tested on: BDF1 mice, B16 melanoma ip, median survival T/C
Test: NCI In Vivo Anticancer Drug Screen. Data for tumor model B16 Melanoma (intraperitoneal) in B6D2F1 (BDF1) mice
Conditions: endpoint: median survival time, higher = longer survival
Method: The antitumor activity of compounds was measured in mice bearing transplantable tumors. Survival or tumor size were measured and the results are expressed as the measurement made in the treated group (T) divided by the measurement made in the vehicle treated control group (C). The tumor model used in this assay is B16 Melanoma (intraperitoneal) in B6D2F1 (BDF1) mice

With COc1cc(NS(C)(=O)=O)ccc1Nc1c2ccccc2nc2ccccc12 the T/C (dose: 1.0 mg/kg/injection, schedule: Q01DX009 (ip), vehicle: other) was 120 % of control and 161 % of control and the T/C (dose: 4.0 mg/kg/injection, schedule: Q04DX003 (ip), vehicle: other) was 121 % of control and 154 % of control.

For CC1OC(=O)C(C(C)C)NC(=O)C(C(C)C)OC(=O)C(C(C)C)NC(=O)C(C)OC(=O)C(C(C)C)NC(=O)C(C(C)C)OC(=O)C(C(C)C)NC(=O)C(C)OC(=O)C(C(C)C)NC(=O)C(C(C)C)OC(=O)C(C(C)C)NC1=O (configuration not stated), the T/C (dose: 0.05 mg/kg/injection, schedule: Q01DX009 (ip), vehicle: DMSO) was 109 % of control and 156 % of control and the T/C (dose: 0.1 mg/kg/injection, schedule: Q01DX009 (ip), vehicle: DMSO) was 114 % of control and 179 % of control.

With Cc1cnc(/C=N\NC(N)=S)c2cccc(N)c12 the T/C (dose: 50.0 mg/kg/injection, schedule: Q01DX009 (ip), vehicle: saline with Tween-80) was 95 % of control and 150 % of control.

With CC(=O)O[C@H]1C(=O)O[C@@H]2C[C@H]3C(C)=CC(=O)[C@@H](O)[C@]3(C)[C@H]3[C@@]4(O)OC[C@]32[C@@H]1[C@@H](C)[C@H]4O the T/C (dose: 3.0 mg/kg/injection, schedule: Q01DX009 (ip), vehicle: saline) was 104 % of control and 176 % of control and the T/C (dose: 6.0 mg/kg/injection, schedule: Q01DX009 (ip), vehicle: saline) was 115 % of control and 152 % of control.
